Source: publication PMC6769256
These are yes or no findings as the source states them, for the method shown. In cells and extracts the contact can be indirect. Some entries that bind do so weakly or less than the wild type. For some assays here: Tags and fused reporters may be left off the sequences shown. Values belong to the molecule of their own block, whether it stands above or below them.

Sequences of proteins named here, by UniProt entry; tags and fusion partners are left off.
UniProt P11940: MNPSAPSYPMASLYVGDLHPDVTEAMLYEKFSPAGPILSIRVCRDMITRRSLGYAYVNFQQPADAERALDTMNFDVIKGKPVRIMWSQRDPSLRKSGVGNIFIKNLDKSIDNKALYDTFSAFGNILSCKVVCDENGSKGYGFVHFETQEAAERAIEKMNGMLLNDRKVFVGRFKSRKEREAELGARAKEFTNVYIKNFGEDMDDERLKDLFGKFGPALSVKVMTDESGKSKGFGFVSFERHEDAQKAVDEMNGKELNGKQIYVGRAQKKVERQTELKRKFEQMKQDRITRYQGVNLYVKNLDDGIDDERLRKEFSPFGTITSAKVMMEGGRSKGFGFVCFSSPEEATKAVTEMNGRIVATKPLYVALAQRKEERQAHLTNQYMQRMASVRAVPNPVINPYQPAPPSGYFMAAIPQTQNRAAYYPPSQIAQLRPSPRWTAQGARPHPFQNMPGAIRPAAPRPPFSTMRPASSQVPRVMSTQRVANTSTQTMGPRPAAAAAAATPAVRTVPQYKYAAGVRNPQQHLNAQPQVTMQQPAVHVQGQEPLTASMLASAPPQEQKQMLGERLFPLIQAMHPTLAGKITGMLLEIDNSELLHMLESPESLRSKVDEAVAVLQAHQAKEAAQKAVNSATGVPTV

Key:
[1] = target: GFP-tagged Hs HELZ (helicase with zinc-finger), full-length (human) (UniProt P42694); assay: co-IP; GFP immunoprecipitation from HEK293T cells transfected with GFP-tagged HELZ (full-length, fragments or F1107V); endogenous NOT1, NOT3, PABPC1 detected by Western blot; lysates treated with RNase A before IP
[2] = target: T1, GFP-tagged Hs HELZ-C (residues P1051-K1942) (human) (UniProt P42694); assay: as above
T1 sequence: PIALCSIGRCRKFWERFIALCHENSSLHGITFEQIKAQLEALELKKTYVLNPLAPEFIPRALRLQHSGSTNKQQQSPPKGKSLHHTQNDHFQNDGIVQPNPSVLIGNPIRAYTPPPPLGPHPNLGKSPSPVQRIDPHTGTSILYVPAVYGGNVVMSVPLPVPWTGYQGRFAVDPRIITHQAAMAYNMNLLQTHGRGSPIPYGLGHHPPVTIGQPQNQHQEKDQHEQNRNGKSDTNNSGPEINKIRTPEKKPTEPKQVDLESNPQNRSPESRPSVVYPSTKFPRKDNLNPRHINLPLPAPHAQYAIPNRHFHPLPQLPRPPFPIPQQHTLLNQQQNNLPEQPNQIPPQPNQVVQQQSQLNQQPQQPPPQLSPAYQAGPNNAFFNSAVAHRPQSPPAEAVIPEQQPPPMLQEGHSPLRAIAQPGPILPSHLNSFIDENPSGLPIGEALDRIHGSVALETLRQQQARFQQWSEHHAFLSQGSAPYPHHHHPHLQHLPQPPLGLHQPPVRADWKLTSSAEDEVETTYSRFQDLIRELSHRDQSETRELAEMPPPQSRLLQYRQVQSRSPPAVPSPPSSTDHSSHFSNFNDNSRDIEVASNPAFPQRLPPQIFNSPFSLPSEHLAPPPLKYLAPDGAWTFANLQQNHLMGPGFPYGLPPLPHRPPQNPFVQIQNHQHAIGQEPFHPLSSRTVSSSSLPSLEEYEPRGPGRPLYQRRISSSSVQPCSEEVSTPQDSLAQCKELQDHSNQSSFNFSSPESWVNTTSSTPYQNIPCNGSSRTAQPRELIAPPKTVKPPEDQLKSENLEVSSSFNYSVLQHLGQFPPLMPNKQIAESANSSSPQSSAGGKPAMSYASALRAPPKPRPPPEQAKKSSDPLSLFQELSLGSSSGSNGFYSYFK

[3] = target: T2, GFP-tagged Hs HELZ-N (residues M1-D1050) (human) (UniProt P42694); assay: as above
T2 sequence: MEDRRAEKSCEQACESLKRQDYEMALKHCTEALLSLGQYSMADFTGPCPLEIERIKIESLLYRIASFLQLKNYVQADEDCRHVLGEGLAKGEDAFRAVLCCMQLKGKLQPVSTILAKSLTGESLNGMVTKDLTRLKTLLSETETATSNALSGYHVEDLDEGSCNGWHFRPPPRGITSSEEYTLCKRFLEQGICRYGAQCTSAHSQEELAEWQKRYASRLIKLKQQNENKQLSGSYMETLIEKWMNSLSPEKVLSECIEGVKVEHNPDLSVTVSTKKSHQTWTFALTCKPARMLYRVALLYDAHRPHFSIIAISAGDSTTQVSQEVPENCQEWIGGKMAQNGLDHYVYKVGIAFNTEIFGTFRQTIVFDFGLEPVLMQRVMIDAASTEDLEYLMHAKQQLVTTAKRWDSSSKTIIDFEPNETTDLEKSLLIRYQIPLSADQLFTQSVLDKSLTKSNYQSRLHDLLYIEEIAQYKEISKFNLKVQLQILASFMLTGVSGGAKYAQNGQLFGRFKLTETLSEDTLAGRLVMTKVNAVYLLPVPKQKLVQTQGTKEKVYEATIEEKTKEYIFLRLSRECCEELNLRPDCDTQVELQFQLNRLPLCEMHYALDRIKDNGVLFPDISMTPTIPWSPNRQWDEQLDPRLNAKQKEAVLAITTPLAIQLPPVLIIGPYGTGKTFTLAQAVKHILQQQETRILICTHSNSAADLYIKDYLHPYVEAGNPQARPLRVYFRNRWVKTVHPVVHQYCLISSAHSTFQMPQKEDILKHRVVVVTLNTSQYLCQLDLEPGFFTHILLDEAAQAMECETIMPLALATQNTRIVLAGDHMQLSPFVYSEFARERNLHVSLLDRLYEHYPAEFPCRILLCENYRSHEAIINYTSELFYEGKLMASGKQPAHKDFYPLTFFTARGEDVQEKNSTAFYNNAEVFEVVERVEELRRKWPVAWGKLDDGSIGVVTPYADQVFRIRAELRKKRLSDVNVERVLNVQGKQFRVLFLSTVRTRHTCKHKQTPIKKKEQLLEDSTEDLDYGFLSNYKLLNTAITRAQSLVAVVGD

[4] = target: GFP-tagged Hs HELZ F1107V mutant (human) (UniProt P42694); assay: as above
[5] = target: T3, GFP-tagged Hs HELZ (helicase with zinc-finger), full-length (human), P42694; assay: co-IP; GFP immunoprecipitation from HEK293T cells co-transfected with GFP-Hs HELZ (bait) and an HA-tagged protein; lysates treated with RNase A before IP; Western blot; settings: remark: other sources report otherwise
T3 chain: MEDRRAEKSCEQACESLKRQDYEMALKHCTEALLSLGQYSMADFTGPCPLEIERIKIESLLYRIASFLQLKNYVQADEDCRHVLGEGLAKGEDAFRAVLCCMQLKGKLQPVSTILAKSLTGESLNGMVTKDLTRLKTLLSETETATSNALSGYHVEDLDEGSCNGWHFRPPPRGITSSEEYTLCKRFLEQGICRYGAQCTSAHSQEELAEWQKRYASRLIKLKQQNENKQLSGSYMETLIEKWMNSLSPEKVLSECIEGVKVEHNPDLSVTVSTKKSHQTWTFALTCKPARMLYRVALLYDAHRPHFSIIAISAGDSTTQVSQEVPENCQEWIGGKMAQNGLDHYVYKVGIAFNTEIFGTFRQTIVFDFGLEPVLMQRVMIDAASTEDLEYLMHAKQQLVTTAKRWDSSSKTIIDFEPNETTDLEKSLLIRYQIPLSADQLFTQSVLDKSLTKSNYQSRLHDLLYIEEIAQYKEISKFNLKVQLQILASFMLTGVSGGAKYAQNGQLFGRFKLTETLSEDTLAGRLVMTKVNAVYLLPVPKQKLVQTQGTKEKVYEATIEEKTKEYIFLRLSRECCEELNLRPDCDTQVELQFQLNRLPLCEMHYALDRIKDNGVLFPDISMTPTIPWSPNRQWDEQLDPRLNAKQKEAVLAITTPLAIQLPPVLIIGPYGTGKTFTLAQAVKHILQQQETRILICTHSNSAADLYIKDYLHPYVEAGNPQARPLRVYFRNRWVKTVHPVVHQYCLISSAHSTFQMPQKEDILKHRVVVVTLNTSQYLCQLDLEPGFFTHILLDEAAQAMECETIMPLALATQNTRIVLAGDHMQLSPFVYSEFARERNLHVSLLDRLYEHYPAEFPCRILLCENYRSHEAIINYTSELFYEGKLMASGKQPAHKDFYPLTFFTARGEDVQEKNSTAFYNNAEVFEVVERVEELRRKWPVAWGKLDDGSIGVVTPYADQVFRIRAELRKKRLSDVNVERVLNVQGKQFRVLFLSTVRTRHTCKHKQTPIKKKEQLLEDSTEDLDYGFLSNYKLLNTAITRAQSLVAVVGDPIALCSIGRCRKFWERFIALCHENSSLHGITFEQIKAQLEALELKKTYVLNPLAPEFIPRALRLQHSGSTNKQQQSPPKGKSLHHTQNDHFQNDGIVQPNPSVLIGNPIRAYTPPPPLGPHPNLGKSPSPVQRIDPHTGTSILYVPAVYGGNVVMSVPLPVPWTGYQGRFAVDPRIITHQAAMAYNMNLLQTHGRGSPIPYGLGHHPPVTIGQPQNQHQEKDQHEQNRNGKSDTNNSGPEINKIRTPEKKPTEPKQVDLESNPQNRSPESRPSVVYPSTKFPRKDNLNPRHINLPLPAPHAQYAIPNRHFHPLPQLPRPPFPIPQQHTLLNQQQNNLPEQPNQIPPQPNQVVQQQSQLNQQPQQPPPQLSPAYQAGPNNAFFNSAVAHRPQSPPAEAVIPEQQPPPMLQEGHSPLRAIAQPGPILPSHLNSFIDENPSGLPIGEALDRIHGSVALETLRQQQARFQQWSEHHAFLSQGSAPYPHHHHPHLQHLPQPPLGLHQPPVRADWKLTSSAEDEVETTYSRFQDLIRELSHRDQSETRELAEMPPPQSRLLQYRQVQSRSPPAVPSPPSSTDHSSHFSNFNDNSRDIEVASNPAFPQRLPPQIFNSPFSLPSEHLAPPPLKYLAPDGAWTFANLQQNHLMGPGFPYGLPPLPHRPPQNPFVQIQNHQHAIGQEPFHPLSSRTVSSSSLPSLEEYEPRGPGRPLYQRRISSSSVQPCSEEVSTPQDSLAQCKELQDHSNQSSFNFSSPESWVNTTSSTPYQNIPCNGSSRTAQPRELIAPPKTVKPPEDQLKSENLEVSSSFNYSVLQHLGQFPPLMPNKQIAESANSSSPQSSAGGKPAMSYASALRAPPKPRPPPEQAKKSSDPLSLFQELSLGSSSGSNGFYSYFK

binding [1]: binds
binding [2]: binds
binding [3]: no binding
binding [4]: no binding
Molecule: endogenous cytoplasmic polyadenylate-binding protein 1 (PABPC1) (from UniProt P11940 1-636)

binding [5]: no binding
B1: HA-tagged Hs DDX6, P26196 1-483 (protein)
chain: MSTARTENPVIMGLSSQNGQLRGPVKPTGGPGGGGTQTQQQMNQLKNTNTINNGTQQQAQSMTTTIKPGDDWKKTLKLPPKDLRIKTSDVTSTKGNEFEDYCLKRELLMGIFEMGWEKPSPIQEESIPIALSGRDILARAKNGTGKSGAYLIPLLERLDLKKDNIQAMVIVPTRELALQVSQICIQVSKHMGGAKVMATTGGTNLRDDIMRLDDTVHVVIATPGRILDLIKKGVAKVDHVQMIVLDEADKLLSQDFVQIMEDIILTLPKNRQILLYSATFPLSVQKFMNSHLQKPYEINLMEELTLKGVTQYYAYVTERQKVHCLNTLFSRLQINQSIIFCNSSQRVELLAKKISQLGYSCFYIHAKMRQEHRNRVFHDFRNGLCRNLVCTDLFTRGIDIQAVNVVINFDFPKLAETYLHRIGRSGRFGHLGLAINLITYDDRFNLKSIEEQLGTEIKPIPSNIDKSLYVAEYHSEPVEDEKP
